Structures are written as SMILES.

For the assay, the target named is Cyclin-dependent kinase 1 (Homo sapiens, UniProt P06493).
Cyclin-dependent kinase 1, sequence (P06493 whole entry): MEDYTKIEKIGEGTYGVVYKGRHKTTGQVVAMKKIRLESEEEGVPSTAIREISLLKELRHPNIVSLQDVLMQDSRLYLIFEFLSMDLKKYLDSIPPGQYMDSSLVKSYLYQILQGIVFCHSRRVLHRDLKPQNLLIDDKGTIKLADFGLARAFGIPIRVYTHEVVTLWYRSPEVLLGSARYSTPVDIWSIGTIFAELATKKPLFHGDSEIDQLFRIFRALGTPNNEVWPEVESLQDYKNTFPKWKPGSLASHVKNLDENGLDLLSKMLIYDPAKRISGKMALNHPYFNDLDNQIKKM
The term IC50 denotes the midpoint of a concentration-inhibition curve. A higher IC50 goes with a need for much substance. `Cc1nc2ccccn2c1-c1ccnc(Nc2ccc(OCC(O)CN(C)C)cc2)n1` (stereo unspecified) registered an IC50 of 5 nM. In other words, the single-digit nanomolar range.

For `O=C(Cc1ccc2ccccc2c1)Nc1cc(C2CC2)n[nH]1`, the IC50 stood at 279 nM.

Compound `O=C1C(c2c(O)[nH]c3ccc(S(=O)(=O)O)cc23)=Nc2ccccc21` showed an IC50 of 40 nM. Compared with the last compound, the IC50 is about 7-fold lower.

In the case of `c1ccc2c(c1)Cc1c-2n[nH]c1-c1ccncc1`, the IC50 came out at 1600 nM. Compared with the last compound, the IC50 is about 40-fold higher.

`Nc1nc2ccc(C(=O)c3c(F)cccc3Cl)cc2n1Cc1c(F)cccc1F` displayed an IC50 of 104 nM. This IC50 is about 15-fold lower than that of the compound before.

As to `O=C(Nc1cc(C2CCC2)c[nH]1)Nc1cccc2ccncc12`, the IC50 worked out at 55 nM. This IC50 is about 1.9-fold lower than that of the compound before.

`CN(C)CCNS(=O)(=O)c1ccc(Nc2cccc(-c3cnc4ccccn34)c2)cc1` displayed an IC50 of 15 nM.

Take `CC1(C)CC2(C)Nc3cc(-c4ccc5c(c4)NC4(C)CC(C)(C)NC(=S)N54)ccc3N2C(=S)N1` (stereo unspecified): the IC50 worked out at 5000 nM.

In turn, `NC(=O)c1ccc2c(c1)C(=NNc1ccc(S(=O)(=O)NCCOCCO)cc1)C(=O)N2` gave an IC50 of 2800 nM.

Turning to `O=C(Nc1ccccn1)Nc1cccc2c1[C@H]1CCCN1C2=O`, it took 1800 nM to reach half-maximal inhibition (IC50). This IC50 is about 1.6-fold lower than that of the compound before.

Turning to `Nc1nc(N)c(N=O)c(=O)[nH]1`, half-maximal inhibition (IC50) required 6 nM. Against the preceding compound, the IC50 is about 300-fold lower.

The values above are taken from ChEMBL document CHEMBL1240533, “Selectivity and potency of cyclin-dependent kinase inhibitors” (AAPS J, 2006).
